In PubChem BioAssay AID1347073 (National Center for Advancing Translational Sciences (NCATS), 2019):
Out of some 45,000 compounds screened, about 200 (0.44%) were called active. About 7% were inconclusive and are not listed. The call rests on the fitted dose curve; in most records, active means well fitted activation curve with a large enough effect; inconclusive means small, poorly fitted or top-dose-only effect; inactive means no such curve, though single readings can be large or run the other way. This is one part of the list.

Test: qHTS of TDP-43 Inhibitors: NCGC Sytravon Library Screen; further: 0% is about no effect; nearly all actives have a fitted effect of over 55% in size
Conditions: yeast TDP-43 toxicity rescue, BacTiter-Glo growth, 24 h; at 46.1 µM (top of the series)
Outline: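 TDP-43-expressing yeast, pregrown in raffinose, seeded at OD600 0.02 in galactose medium with compound for 24 hr at 30 deg C. Growth read by BacTiter-Glo luminescence, so rescue of toxicity appears as activation.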

| Structure (SMILES) | growth rescue (activation) |
| --- | --- |
| C[C@]12CC[C@@H](O)CC1=CCC1C2CC[C@@]2(C)C1CC[C@@H]2N (stereo partly specified) | inactive: -3.21% |
| CCc1ccccc1NC(=O)CNC1CCCCC1 | inactive: 5.09% |
| CN(C)c1ccc([P+](=O)c2ccc(N(C)C)cc2)cc1 | inactive: 5.93% |
| CN(C)C(Cc1ccccc1)C(=O)c1ccccc1 (stereo unspecified) | inactive: -1.66% |
| CC(C)OC(=O)Nc1ccc(N=C(N)N[N+](=O)[O-])cc1 | inactive: 6.83% |
| O=c1[nH]c(=S)[nH]c(O)c1/C=C1/C=c2ccccc2=N1 | inactive: 2.54% |
| Cc1cc(/C=C2/C(=O)NC(=O)N(C)C2=O)c(C)n1-c1ccccc1 | inactive: 11.2% |
| CCN(CC)c1ccc(CN2CC=C(c3ccc(F)cc3)CC2)cc1 | inactive: 3.37% |
| OC1(c2ccccc2)CCNC2CCCCC21 (stereo unspecified) | inactive: 4.73% |
| CCCCn1c(O)c(C(C)=Nc2ccc(OCC)cc2)c(=O)[nH]c1=O | inactive: 3.56% |
| CCN1C(=O)C(=Cc2ccc(C)s2)C(=O)N(CC)C1=S | inactive: 9.57% |
| O=c1cc(CN2CC=C(c3ccccc3)CC2)c2c(ccc3ccccc32)o1 | inactive: -10.7% |
| C(=N\NC1=NCCCCC1)/c1c[nH]c2ccccc12 | inactive: 5.26% |
| CCN(CC(=O)Nc1ccc(C#N)c(Cl)c1)CC(=O)NC1CCS(=O)(=O)C1 (stereo unspecified) | inactive: 5.17% |
| CC(C)CN1CCN(Cc2c(F)cccc2Cl)CC1CCO (stereo unspecified) | inactive: -11.5% |
| O=C(COc1ccccc1)c1cn(Cc2ccccc2)c2ccccc12 | inactive: -10.9% |
| NC(N)=N/N=C/c1cn(-c2ccccc2)nc1-c1cccs1 | inactive: 24% |
| Cc1nn(Cc2ccc(Cl)cc2Cl)c(Cl)c1C(=O)O | inactive: -2.01% |
| CC(C)(C)c1ccc(C(=O)Nc2ccc(Cl)cc2C(=O)c2ccccc2)cc1 | inactive: 4.59% |
| CCC(=O)OC1(c2ccccc2)C(C)CN(C)CC1C (stereo unspecified) | inactive: 6.62% |
| CCOP(=O)(OCC)C(NS(=O)(=O)c1ccccc1)C(Cl)(Cl)Cl (stereo unspecified) | inactive: -15.9% |
| C=CCn1c(O)c(C(CC)=NCCN2CCN(C(=S)NC)CC2)c(=O)[nH]c1=O | inactive: -6.77% |
| CCCCn1c(O)c(C(C)=Nc2ccc3c(c2)CCC3)c(=O)[nH]c1=O | inactive: 3.28% |
| C[C@]12CCC3C(CC[C@H]4C[C@H](O)CC[C@]34C)C1CCC2=O (stereo partly specified) | inactive: 35% |

| Structure (SMILES) | growth rescue (activation) |
| --- | --- |
| CCCC[N+]12CCC(CC1)C(=C(c1ccccc1)c1ccccc1)C2 | inactive: -3.49% |
| C#C[C@]1(O)CCC2C3C(CC[C@@]21C)[C@@]1(C)CC[C@@H](O)CC1=C[C@H]3O (stereo partly specified) | inactive: 0.703% |
| COc1ccc(-n2nc(C(=O)NCC(=O)N3CCC4(CC3)OCCO4)c3ccccc3c2=O)c(OC)c1 | inactive: 1.08% |
| O=C(c1ccccc1)c1ccc(N=Nc2c(O)[nH]c(=O)[nH]c2=O)cc1 | inactive: -3.8% |
| COc1ccc(C(CNC(=O)CCc2ccsc2)N(C)C)cc1 (stereo unspecified) | inactive: 2.6% |
| O=C(c1ccc2c(c1)OCO2)C1CCCN(CC2CCCCC2)C1 (stereo unspecified) | inactive: -0.198% |
| CCc1ccc(-n2c(O)c(/C=N/NC(=O)c3ccncc3)c(=O)[nH]c2=O)cc1 | inactive: 22.5% |
| Cc1cc(Cl)ccc1C(=O)C1CCCN(C2CCSCC2)C1 (stereo unspecified) | inactive: 4.67% |
| CC(C)OCCCNC(=O)c1c(N)n(Cc2cccs2)c2nc3ccccc3nc12 | inactive: -9.14% |
| COc1ccccc1N1C(=O)NC(=O)/C(=C\c2cnn(-c3ccccc3)c2)C1=O | inactive: -10.3% |
| COc1cccc(-n2c(/C=C/c3ccc(O)c(O)c3)nc3ccccc3c2=O)c1 | inactive: 12.3% |
| Cc1ccc2c(c1)C1CN(C)CCC1N2C(=O)/C=C/c1ccc2c(c1)OCO2 (stereo unspecified) | inactive: 3.47% |
| CCNc1cc(N2CCN(C)CC2)ccc1[N+](=O)[O-] | inactive: -4.52% |
| COc1ccc(CCn2c(O)c(/C=N/NC(=O)c3ccncc3)c(=O)[nH]c2=O)cc1OC | inactive: -7.94% |
| CN1CCN(C(=O)COc2ccc3ccccc3c2)CC1 | inactive: -4.18% |
| CC(=O)N1CCN(CCN=Cc2c(O)n(-c3ccc(C)cc3)c(=S)[nH]c2=O)CC1 | inactive: -7.34% |
| CCc1nc2ccccc2c(=O)n1-c1ccccc1[N+](=O)[O-] | inactive: 22.1% |
| CSc1ccc(C(=O)C2CCCN(C)C2)cc1 (stereo unspecified) | inactive: 10.5% |
| NNc1n[nH]c(=S)n1N | inactive: 10.2% |
| Cc1nc2ccc(Br)cc2c(=O)n1-c1ccc([N+](=O)[O-])c(C(F)(F)F)c1 | inactive: -3.67% |
| COC(=O)C1=C(N)Oc2cc(C)oc(=O)c2C12C(=O)Nc1ccccc12 (stereo unspecified) | inactive: -1.46% |
| O=C(O)C1C2CCC(O2)C1C(=O)Nc1ccc(Cl)cc1 (stereo unspecified) | inactive: -3.81% |
| C=CCN1C(=O)NC(=O)/C(=C/c2cc3c4c(c2)CCCN4CCC3)C1=O | inactive: 2.98% |
| COCCN1C(=O)NC(=O)/C(=C\c2ccc(Br)cc2)C1=O | inactive: 1.17% |

| Structure (SMILES) | growth rescue (activation) |
| --- | --- |
| NC(N)=N/N=C/c1ccc(N2CCOCC2)cc1 | inactive: 19% |
| OC(CN1CC=C(c2ccccc2)CC1)c1ccccc1 (stereo unspecified) | inactive: 9.85% |
| C[n+]1c(-c2ccccc2)cc(-c2ccc(O)cc2)cc1-c1ccccc1 | inactive: -1.36% |
| CC(=NCC1CCCO1)c1c(O)n(-c2ccccc2C)c(=O)[nH]c1=O (stereo unspecified) | inactive: -14.6% |
| COc1cccc(CC(=O)N2CCN(Cc3cccc(Cl)c3)CC2)c1 | inactive: 2.39% |
| CC1CCCCN1Cc1cccnc1 (stereo unspecified) | inactive: -19.7% |
| CC[N+](CC)(CC#CCO)CC#Cc1ccccc1 | inactive: 13.9% |
| COc1ccc(CCn2c(O)c(/C=N/N3CCCCC3)c(=O)[nH]c2=O)cc1OC | inactive: 4.58% |
| Cc1cccc(-n2c(-c3ccccc3)nc3ccccc3c2=O)n1 | inactive: 5.45% |
| COc1cc2c(cc1OC)C(c1c(O)n(CCc3ccccc3)c(=S)[nH]c1=O)NCC2 (stereo unspecified) | inactive: -7.95% |
| CC(CCc1ccccc1)NCCC#N (stereo unspecified) | inactive: 10.2% |
| O=C(C[N+]12CCN(CC1)CC2)NCCc1ccc(Cl)cc1Cl | inactive: -13.5% |
| Cc1ccccc1N1CCN(C2CCCN(C(=O)COc3ccccc3)C2)CC1 (stereo unspecified) | inactive: -12.4% |
| O=C(Nc1c(F)cc(F)cc1F)c1cccn(Cc2ccccc2)c1=O | inactive: -26.7% |
| Cc1ccc(C)c(OCC(=O)N2CCCN(C)CC2)c1 | inactive: 6.9% |
| COc1cccc(CN2CCNCC2)c1 | inactive: 0.548% |
| COc1ccc(C(C)=O)cc1CC(C(=O)c1ccccc1)N(C)C (stereo unspecified) | inactive: 6.27% |
| Cc1csc(=N)n1Cc1ccccc1 | inactive: -4.7% |
| O=C1CCN(C(=O)CNC(=O)Cc2ccccc2)CC1 | inactive: 5.02% |
| CC1(C)C2([N+](=O)[O-])CN3CN(C2)CC1([N+](=O)[O-])C3 | inactive: -2.73% |
| CCCCn1c(O)c(C=NCCN2CCCCC2)c(=O)[nH]c1=O | inactive: -7.58% |
| O=C(CN1C(=O)CN=C(c2ccccc2Cl)c2cc(Cl)ccc21)NCc1ccco1 | inactive: -16.4% |
| C[C@]12CCC3C(CC[C@H]4C[C@@H](O)CC[C@]34C)C1C[C@@H](N)[C@@H]2O (stereo partly specified) | inactive: 23.6% |
| OC1(c2cccnc2)CC2CCC(C1)N2Cc1nnnn1Cc1ccccc1 (stereo unspecified) | inactive: 15.4% |

| Structure (SMILES) | growth rescue (activation) |
| --- | --- |
| CC(C)c1ccc(N2C(=O)NC(=O)/C(=C/C=C/c3ccco3)C2=O)cc1 | inactive: -0.388% |
| CC(C)CCNC(=O)CN1C(=O)CN=C(c2ccccc2)c2ccccc21 | inactive: 29.6% |
| Cc1nn(Cc2ccccc2)c(Cl)c1C(=O)OCC(=O)N1CCCC1 | inactive: -5.14% |
| O=C1NC(=O)N(c2cccc(Br)c2)C(=O)/C1=C/c1ccsc1 | inactive: 2.92% |
| O=[N+]([O-])c1ccc(NCc2ccc(Cl)cc2)c2ccncc12 | inactive: 16.8% |
| CCC(=NCCC(c1ccccc1)c1ccccc1)c1c(O)n(C)c(=O)n(C)c1=O | inactive: -15.8% |
| COc1cc(/C=C2\C(=O)NC(=O)N(CCc3ccc(F)cc3)C2=O)ccc1O | inactive: -9.93% |
| CCCOc1ccc(N2C(=O)CC(N3CC=C(c4ccccc4)CC3)C2=O)cc1 (stereo unspecified) | inactive: 29.1% |
| Cn1cc(C(=O)OCC(=O)NC2(C#N)CCCCC2)c2ccccc21 | inactive: 10.7% |
| CC1CCCC(C)N1/N=C/c1c[nH]c2ccc(Br)cc12 (stereo unspecified) | inactive: 3.25% |
| COc1ccc(C(=O)C2CCCN(C3CSCCSC3)C2)c(C)c1 (stereo unspecified) | inactive: 12.5% |
| Cn1c(O)c(/C=C2/C=CC=N2)c(=O)[nH]c1=O | inactive: -10.5% |
| COc1ccc(OC)c(N2Cc3ccccc3C2=N)c1 | inactive: -19% |
| Cc1ccc(/C=C2\C(=O)NC(=O)N(CC3CCCO3)C2=O)s1 (stereo unspecified) | inactive: -3.88% |
| O=c1oc2ccccc2c(O)c1C(c1ccc([N+](=O)[O-])cc1)c1c(O)c2ccccc2oc1=O | inactive: -16.1% |
| Cc1cc(O)c(CN2CC=C(c3ccccc3)CC2)cc1C(C)C | inactive: -12.4% |
| CCCSc1nc2ccccc2c(=O)n1-c1ccccc1OC | inactive: 29.8% |
| NC(Cc1ccc(F)cc1)c1csc(Nc2ncccn2)n1 (stereo unspecified) | inactive: 18.2% |
| COC(=O)c1c(C)n(Cc2ccccc2)c2ccc(O)cc12 | inactive: 10.1% |
| CN1C(=O)C(=Cc2ccc(N3CCOCC3)o2)C(=O)N(C)C1=O | inactive: 1.49% |
| Cc1cc(Cl)ccc1C(=O)C1CCCN(Cc2ccon2)C1 (stereo unspecified) | inactive: 9.27% |
| COc1ccc(C)cc1NC1=NCCCS1 | inactive: 1.24% |
| O=C1NC(=O)C(=Cc2cc([N+](=O)[O-])ccc2N2CCCCC2)C(=O)N1 | inactive: 5.14% |
| Cc1cc(C)c(-n2c(O)c(/C=N/NC(=O)c3ccncc3)c(=O)[nH]c2=O)c(C)c1 | inactive: 8.09% |
